Reference: ChEMBL document CHEMBL4888484, “Replenishing the malaria drug discovery pipeline: Screening and hit evaluation of the MMV Hit Generation Library 1 (HGL1) against asexual blood stage Plasmodium falciparum ,using a nano luciferase reporter read-out” (2022)
Screen size: about 150,000 compounds; about 540 (0.36%) showed an effect of 50% or more. The list shows a part of the results.

Tested on: Plasmodium falciparum
Experiment: Primary screen in NF54 nanoGlo assay, in single point, at 2uM, 72h; a lower Z score goes with more inhibition
Format: functional, Erythrocyte
Settings: timepoint 72 hour

SMILES	% Inhibition [%]	Z score
CC(C)(C)n1nc2nc(N3CCCC3)nc(-c3cccc(Oc4ccccc4)c3)c2c1N	-15	2.25
Cc1nc2n(n1)C[C@@H](Nc1ccc3nccnc3n1)CC2	3	-0.54
C#C[C@H](C)OC(=O)c1cc(C(C)C)[nH]n1	-1	0.12
COC(=O)CCC(=O)NCc1cccnc1N1CCCCCCC1	5	-0.58
C[C@H](NC(=O)C1=NN(C)C(=O)CC1)c1ccccn1	19	-2.48
OC1(Cc2cc(-c3ccccc3)no2)CCN(CC(c2ccccc2)c2ccccc2)CC1	-10	1.36
CCC1CC(CC(=O)Nc2ccccc2-c2ncco2)CCO1 (stereo not drawn)	-7	1.19
CC1=NN(c2nc(-c3ccccc3)no2)[C@@](O)(C(F)(F)F)C1	-3	0.5
CS(=O)(=O)c1ccc(CN2CCC([C@@H](O)CCc3ccccc3)CC2)cc1	-3	0.41
Cc1cc(-c2ccc(C(=O)N3CCC(F)(F)CC3)cc2)c(=O)[nH]c1C	-7	0.95
CC1CC(C)CN(S(=O)(=O)NCC(O)c2c(F)cccc2F)C1 (stereo not drawn)	-15	2.11
CCc1nc(CCN=C(NC)NC)sc1C	4	-0.35
CN1CC[C@H](NC(=O)CCc2cc3ccccc3[nH]c2=O)CC1=O	-14	1.45
CCCn1c(C)nnc1COC(=O)c1cc(Cl)c(Cl)[nH]1	-14	1.57
CN1C(=O)N(CC[C@H]2CCCO2)S(=O)(=O)c2ccccc21	-9	0.98
CCc1cccc(NC(=O)Cn2cnc3nc(N4CCCC4)sc3c2=O)c1	-2	0.26
CCCC(=O)C(=O)N1Cc2c(-c3cccc(C)c3)nc(N)nc2[C@@H]1C	-13	1.24
CC(=O)NCCNC(=O)c1cc(NCc2ccc3nsnc3c2)cc(S(=O)(=O)N(C)C)c1	-16	1.89
Cn1c(Cn2ccnc2)nnc1[C@H]1CCCN(c2ncccc2Cl)C1	-3	0.48
O=C(C[C@H]1c2ncccc2C(=O)N1c1ccccc1)NCCN1CCCCC1	-6	1.08
CN=C(NCc1ccc(C)c(OC)c1)NCc1ccccn1	-7	0.63
CC1=NS(=O)(=O)NC(C)=C1CCC(=O)N(C)Cc1ccccc1	-5	0.75
CC(=O)N1CCOC[C@@H]1Cc1ccccc1	-4	0.75
CCOC(=O)C1CCN(C(=O)[C@H](C)NC(=O)c2cc3n(n2)CCCN(Cc2ccc(C)cc2)C3=O)CC1	1	-0.1
Cc1cc(NC(=O)CCc2c(C)[nH]c(=O)c(C#N)c2C)[nH]n1	-1	0.09
CC1CCC(C(=O)Nc2cccc3c2OCCN3C(=O)C2CCC(C)O2)O1 (stereo not drawn)	-10	1.6
Cc1[nH]c2ccnn2c(=O)c1CC(=O)N1CC[C@H](C)c2cccc(O)c21	39	-5.3

SMILES	% Inhibition [%]	Z score
Cc1ccc(C)c(NC(=O)c2nnn(CC(=O)Nc3ccc4c(c3)OCCO4)c2C)c1	1	-0.21
CC(C)N(C)S(=O)(=O)N(C)CCCN1CCCCCC1	1	-0.16
c1ccc(OCCCN2CCN(Cc3noc(C4CC4)n3)CC2)cc1	10	-1.55
Cc1cc(CN(C)Cc2cnc3n2CCOC3)no1	5	-0.94
CCN1[C@H](C)CN(c2ccnc(C(=O)OC)n2)C[C@@H]1C	-3	0.35
COc1cc(C(=O)NC2Cc3ccccc3C2)ccc1OC1CCN(C(C)=O)CC1	-8	1.03
CC(C)N1CCCn2cc(S(=O)(=O)Nc3ccc(N4CCOCC4)cc3)cc2C1=O	-12	1.41
C=CCOC[C@@H](O)CN(Cc1cccn1Cc1cccc(F)c1)CC(C)C	-18	1.85
COCCN(C[C@@H]1CC=CCC1)C(=O)c1c[nH]nn1	31	-3.48
O=C(CCNC(=O)c1ccncc1)N[C@H](c1ccccc1)C1CCC1	-8	1.35
Cc1cc(C)n(-c2ccc(C(=O)N3CC[C@H](c4cnccn4)C3)cc2)n1	-41	4.78
CCc1nc(NCCN(C)S(C)(=O)=O)ncc1C	-9	0.86
Cc1ccc(-c2nc(CNC(=O)NC3CCCC3)c(C)o2)cc1	-13	1.62
COC[C@H](C)n1cc(C(=O)NCc2cc3n(n2)CCCO3)c(C)n1	-10	1.18
Cn1ncc2c(=O)n(Cc3coc(-c4c(F)cccc4F)n3)cnc21	-9	1.65
CCOC(=O)N(C)CC(=O)NC1CCCCC1	-6	0.86
CCCCn1c(CC)nc2ccccc21	-14	1.22
CC[C@@H](c1cccnc1)N(C)C(=O)c1ccnnc1	4	-0.78
Clc1ccc(OCCCc2nnc3n2CCCC3)c(Cl)c1	24	-3.19
O=C(c1ccc2nc(-c3ccccc3)cn2c1)N1Cc2ccccc2C1	-4	0.87
CCOCCNS(=O)(=O)c1cnc(N2CCOCC2)c(Cl)c1	4	-0.43
CCn1c(CNc2ccccc2F)nc2cc(S(=O)(=O)N3CCCCC3)ccc21	5	-0.75
O=c1[nH][nH]c(=O)n1-c1ccc(Cl)cc1	-3	0.38
Cc1ccc(C(=O)NCc2ccc(-c3nc(C(C)C)no3)s2)cc1	-1	0.11
C#CCN(CCOC)Cc1cccs1	18	-1.98
COc1cc2ncn([C@H]3[C@@H]4OC[C@@H](O4)[C@@H](NCCC(C)(C)C)[C@@H]3O)c2cc1OC	-2	0.38
COCc1c(C(=O)N2C[C@@H](C)CN(C)c3ccccc32)cnn1-c1ccccc1	0	-0.01
